Experimental data taken from the RNAGym collection of RNA variant scans (doi:10.1093/nar/gkz1192).
Read counts are not given, so values of variants with three or more changes are uncertain.

B1: CPEB3 Ribozyme (parent)
chain: UAACAGGGGGCCACAGCAGAAGCGUUCACGUCGCAGCCCCUGUCAGAUUCUGGUGAAUCUGCGAAUUCUGCUGUAUAUCUC

Variants of: B1
Assay: self-cleavage, relative activity (ratio to wild type); higher = more cleavage; in vitro, sequencing
Outline: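 Barcoded CPEB3 ribozyme mutants, produced by rounds of error-prone PCR, self-cleaved while being transcribed with T7 RNA polymerase for 5 hours at 37°C and during a subsequent 15 min DNase I step before EDTA was added. Sequencing of template-switched cDNA on Illumina gave cleaved and total reads, and DNA sequencing assigned barcodes to variants. Each variant's relative activity is its cleaved/total read fraction divided by the unmutated ribozyme's fraction, averaged across three batches. A variant needed a minimum of 5 reads.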

Variant	self-cleavage
UAACAGGGGGGCACAGCAGAAGCGUUCACGUCGCAGCCCCUGUCUGAUUCUGGUGAAUCUGCGAGUUCUGCUGUAUAUCUC [C11G A45U A65G]	0.13
UAACAGGGGGGCACAGCGGAAGCGUUCUCGUCGCUGCCCCUGUCAGAUUCUGGUGAAUCUGCGAAUUCUGCAGUAUACCUC [C11G A18G A28U A35U U72A U78C]	0.04
UAACAGGGGGGCACAGCAGAGGCGUUCACGUCGCAGCCCCUGUCGGGUUCUGGUGAUUCUGCGAAUUCUGCUGUAUAUCUC [C11G A21G A45G A47G A57U]	0.23
UAACAGGGGGGCACAGCAGGGGCGUUCACGUCGCAGCCCCUGCCAGAUUCUGGUGAAUCCGCGAAUUCUGCUGUAUAUCUC [C11G A20G A21G U43C U60C]	0.36
UAACAGGGGGGCACAGCAGGAGCGUUCCCGUCGCAGCCCCUGACAGAUUCUGGCGAAUCCGCGAAUUCAGCUGUAUAUCUC [C11G A20G A28C U43A U54C U60C U69A]	0.03
UAACAGGGGGGCACAGCGGAAGAGUUCACGUCGCAGCCCCUGUCAGAUACUGGUGGAUCUGCGAAUUAUGCUGUAUAUCUC [C11G A18G C23A U49A A56G C68A]	0.13
UAACAGGGGGGCACAGCAGAAGCGUUCGCGUCGCAGCCCCUGUCUGAUUCUGGUGUGUCUGCGAAUUCUGCCGUAUACCUC [C11G A28G A45U A56U A57G U72C U78C]	0.07
UAACAGGGGGGCACAGCAGUAGCGUCCACGUCGCAGCCCCUGUCAGAUUCUGGUGAAUCUGCGAACUCUGCUGCAUAUCUC [C11G A20U U26C U66C U74C]	0.27
UAACAGGGGGGCGCAGCGGAAGCGUUCACGUCGCAGCCCCUGUCAGAUCCAGGUGAAUCUGCGAAUUCUGCAGUAUAACUC [C11G A13G A18G U49C U51A U72A U78A]	0.06
UAACAGGGGGGCACUGCAGAAGCGUUCACGUCGCAGCCCCAGUCAGAUUCUGGUGAAUCUGCGAAUUCUGCUGCAUAUCUC [C11G A15U U41A U74C]	0.8
UAACAGGGGGGCACAGCAGAGGCGUUCACGUCGCAGCCCCUGUCAGAUUCUGGGGAAUCUGCGAAUUCUGCUGUAUAUCUC [C11G A21G U54G]	0.39
UAACAGGGGGGCACAGCAGGAGCGUCCACGCCGCAGCCCCUGUCUGAUUCUGGUGAAUCUGCGAAUUCUGCUGUAUAUCUC [C11G A20G U26C U31C A45U]	0.32
UAACAGGGGGGCUCAGCAGAAGCGUUCACGUCGCAGCCCCUGUCAGAUUCUGGCGUAUCUGCGAAUUCAGCUGCAUAUCUC [C11G A13U U54C A56U U69A U74C]	0.13
UAACAGGGGGGCACAGCAGAAGCGUUCACGUCGCUGCCCCUGUCAGGUUCUGGUGAAUCUGCGAAUUCUGCUGUAUAUCUC [C11G A35U A47G]	0.49
UAACAGGGGGGCACAGCAGGAGCGUUCAUGUCGCUGCCCCUGUCGGAUUCUGGUGAAUCUGCGAAUUCUGCUGUAUAUCUC [C11G A20G C29U A35U A45G]	0.08
UAACAGGGGGGCACAGCAGAAGCGUUCUCGCCGCAGCCCCCGUCAGAUUCUGGUGAAUCCGCGAAUUCAGCUGUGUAUCUC [C11G A28U U31C U41C U60C U69A A75G]	0.11
UAACAGGGGGGCACAGCAGGAGCGUUCACGUCGCAGCCCCUGUCAGAUUCUGGUGAAUCUGCGGAUUCUGCAGUAUAUCUC [C11G A20G A64G U72A]	0.41

Variant	self-cleavage
UAACAGGGGGGCACAGCAGAAGCGUUCGCGUCGCAGCCCCGGCCAGAUUCUGGUGAACCUGCGUAUUCUGCUGUAUAUCUC [C11G A28G U41G U43C U58C A64U]	0.12
UAACAGGGGGGCACAGCAGAUGCGUUCACGUCGCAGCCCCUGUCAGAUUCUAGUGAAUCGGCGAAUUCUGCUGUAUAUCUC [C11G A21U G52A U60G]	0.06
UAACAGGGGGGCACAGCAGAAGCGUUCCCGUCGCAGCCCCUGUCAGAUUCUGGUGAAUCUGCGAAUUCUGCUGUAUGUCUC [C11G A28C A77G]	0.13
UAACAGGGGGGCGCAGCAGAAGCGUUCACGUCGCAGCCCCUGACAGAUUCUGGUGAAUCCGUGAAUUCUGCUGUAUAUCUC [C11G A13G U43A U60C C62U]	0.06
UAACAGGGGGGCUCAGCAGGAGCAUUCACGUCGCAGCCCCCGUCAGAUUCUGGUGAAUCUGCGAGUUCUGCUGUAUAUCUC [C11G A13U A20G G24A U41C A65G]	0.07
UAACAGGGGGGCUCAGCAGAAGCGCUCGCGUCGCAGCCCCUGUCAGAUCCUGGUGAAUCUGCGAAUUCUGCUGUAUAUCUC [C11G A13U U25C A28G U49C]	0.05
UAACAGGGGGGCACAGCAGAGGCGUUCUCGUCGCAGCCCCUGUCAGAUUCUGGUGAAUCUGCGAAUUCUGCUGUAUAGCUC [C11G A21G A28U U78G]	0.35
UAACAGGGGGGCUCAGCGGAGGCGUUCACGUCGCAGCCCCUGUCAGAUUCUGGUGAAUCUGCGAACUCUGCUGUGUAUCUC [C11G A13U A18G A21G U66C A75G]	0.15
UAACAGGGGGGCACGGCAGAAGCGUUCACGUCGCAGCCCCUGUCAGAUGCUGGUGAAUCUGCGAAUUCUGCUGUAUAUCUC [C11G A15G U49G]	0.13
UAACAGGGGGGCACGGCAGUAGCGUCCACGUCGCAGCCCCUGUCAGAUUCUGGUGAAUCUGCGAACUCUGCUGUAUAUCUC [C11G A15G A20U U26C U66C]	0.12
UAACAGGGGGGCUCAGCAGGAGCGUUCACGUCGCAGCCCCUGUCAGAUUCUGGUGAAUCUGCGAAUUCUGCUGUAUAUCUC [C11G A13U A20G]	0.22
UAACAGGGGGGCACAGCAGGAGCGUUCACGUCGCAGCCCCUGUCAGAUUCCGGAGAAUCUGCGAAUUCCGCUGUAUAUCUC [C11G A20G U51C U54A U69C]	0.36
UAACAGGGGGGCACAGCAGGAGCGUUCACGUCGCGGCCCCCGUCAGAUUCUGGUGAACAUGCGAAUUCUGCUGUAUAUCUC [C11G A20G A35G U41C U58C C59A]	0.05
UAACAGGGGGGCACAGCUGAAGCCUUCACGUCGCAGCCCCUGUCAGAUUCUGGUGAAUCCGCGAAUUCUGCUGUACAUCUC [C11G A18U G24C U60C U76C]	0.02
UAACAGGGGGGCGCUGCAGAAGCGUUCACGUCGCAGCCCCUGUCAGAUUCUGGUGGUUCAGCGAAUUCUGCCGUAUAUCUC [C11G A13G A15U A56G A57U U60A U72C]	0.14
UAACAGGGGGGCACAGCAGAGGCGUUCACGUCGCAGCCCCUGUCAGAUCCUGGUGAAUCUGCGAAUUCUGCUGUAUAUCUC [C11G A21G U49C]	0.33
UAACAGGGGGGCACUGCAAAAGCGUUCACGUCGCAGCCCCUGUAAGAUUCUGGUGAAUCUGCGAAUUCUGCUGUAUAUCUC [C11G A15U G19A C44A]	0.15
